The campaign covered roughly 48,000 compounds. About 1,200 (2.5%) were called active. Roughly 2% stayed inconclusive and do not appear here.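 How the source made its calls: active means activation of at least 60% and not above a set upper limit (about 1 call in 100 departs from these limits); inconclusive means activation of 40% to 60%, or above that upper limit; inactive means activation under 40%.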 The list shows a part of the results.
molecular target: Probable G-protein coupled receptor 32 (Homo sapiens) (UniProt O75388); test: qHTS for Agonists of Human Resolvin D1 Receptor DRV1; conditions: CHO-K1 GPR32 beta-arrestin PathHunter luminescence, 90 min; at 76.9 µM; stronger effect = higher value; zero percent set by DMSO-only wells
Method in brief: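 Beta-arrestin recruitment read-out: luminescence from complemented beta-Gal in CHO-K1 GPR32 PathHunter cells, measured 1 h after detection reagent at ambient temperature following 90 min compound exposure at 37 °C; DMSO served as basal (EC0) control.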

UniProt O75388, sequence (O75388 whole entry, looked up): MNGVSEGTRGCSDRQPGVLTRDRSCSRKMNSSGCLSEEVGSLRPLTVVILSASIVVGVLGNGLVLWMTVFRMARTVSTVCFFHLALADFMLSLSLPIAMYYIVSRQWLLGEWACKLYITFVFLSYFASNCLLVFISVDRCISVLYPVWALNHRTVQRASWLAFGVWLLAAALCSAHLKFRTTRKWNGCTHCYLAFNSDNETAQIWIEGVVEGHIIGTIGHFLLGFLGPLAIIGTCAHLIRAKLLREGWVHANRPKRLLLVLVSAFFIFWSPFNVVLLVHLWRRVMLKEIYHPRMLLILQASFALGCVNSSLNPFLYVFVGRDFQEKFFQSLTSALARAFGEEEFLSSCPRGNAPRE

Structure (SMILES)	activation
CCOc1ccc(NC(=O)c2ccc3c(=O)n4nc(Nc5ccccc5C)sc4nc3c2)cc1	inactive: -2.82%
CCS(=O)(=O)c1ncc(N(Cc2ccccc2)Cc2ccco2)c(C(=O)Nc2ccc(C)c(C)c2)n1	inactive: -14.8%
COc1cccc(NC(=O)Cn2nnc(-c3nc(-c4ccccc4)no3)c2N)c1	inactive: 4.11%
O=C(Cn1c(=O)oc2cc(Cl)ccc21)Nc1cccc(C(F)(F)F)c1	inactive: 12.5%
Cc1nc2ncnn2c(C)c1CCC(=O)N1CCN(c2ccccc2)CC1	inactive: -0.582%
CCc1ccccc1NC(=O)Cn1c(=O)n(-c2ccc(C)cc2)c(=O)c2c1c1cc(C)ccc1n2C	inactive: 8.26%
COc1ccc(OC)c(NC(=O)c2cc3cc(C)ccc3n2C)c1	inactive: -20.2%
CCCCCn1cc2c(c1-c1ccc(Br)cc1)c(=O)n(C)c(=O)n2C	inactive: 2.74%
CCC(=O)Nc1ccc(CC)cc1-c1nc2ccccc2n(CC(=O)Nc2cccc(Cl)c2)c1=O	inactive: -11.2%
CCCCc1nn2c(=O)cc(COC(=O)c3cccc(NC(=O)CCc4ccccc4)c3)nc2s1	inactive: -6.87%
CCOC(=O)c1ccc(NC(=O)/C(C#N)=C/c2ccc(OC)cc2)cc1	inactive: 10.4%
CCc1ccc(-n2c(=O)c3c(C)c(C)sc3n(CC(=O)NCc3ccc(C)cc3)c2=O)cc1	inactive: -2.32%
N#C/C(=C/c1ccc(Cl)cc1)c1nc(-c2ccc(Br)cc2)cs1	inactive: -0.373%
O=S(=O)(NCc1nc2cccnc2n1Cc1ccccc1)c1ccc2c(c1)CCCC2	inactive: -23.7%
CCCN(CCC)C(=O)Cn1c(=O)n(-c2ccccc2)c(=O)c2c3c(sc21)CCCC3	inactive: -19.2%
COc1cc(/C=C(\C#N)c2nc3ccccc3[nH]2)cc(Cl)c1OCc1ccccc1Cl	inactive: 9.24%
Cc1ccc(CSc2oc(-c3ccco3)nc2S(=O)(=O)c2ccc(C)cc2)cc1	inactive: -23.6%
O=C(CCC1N=C2c3ccccc3N=C(SCc3ccc(Cl)cc3)N2C1=O)NCCc1ccccc1 (stereo not drawn)	inactive: -13.5%
Cc1ccc(NS(=O)(=O)c2ccc3[nH]c(=O)oc3c2)c(C)c1	inactive: -1.66%
COc1cc2nc(SCC(=O)Nc3c(C)cc(C)cc3C)n3nc(CCn4c(C)nc5ccccc54)nc3c2cc1OC	active: 83.2%
Cc1c(NC(=O)Nc2ccc(Br)cc2F)sc2nc3n(c(=O)c12)CCC(C)CC3 (stereo not drawn)	inactive: 15%

Structure (SMILES)	activation
CCOC(=O)c1c(S(=O)(=O)NCC(=O)N2CCN(c3ccccc3)CC2)c(C)n(C)c1C	inactive: 15.2%
COc1ccccc1CNC(=O)CCn1c(=O)c2ccccc2n(CC(=O)Nc2ccc(C)cc2Cl)c1=O	inactive: 8.12%
Fc1ccc(C(NCCc2ccc(Cl)cc2)c2nnc(-c3ccccc3)o2)c(Cl)c1 (stereo not drawn)	inactive: -42.2%
CC(=O)NCC(c1ccc2c(c1)OCO2)N1CCN(c2ccccc2)CC1 (stereo not drawn)	inactive: 1.34%
CCCn1c2ccccc2c2cnn(CC(=O)N(C)c3ccccc3CC)c(=O)c21	inactive: -22.1%
CCc1cccc(C)c1NC(=O)c1cc(S(=O)(=O)NCc2ccccc2Cl)ccc1F	inactive: 3.45%
COc1cccc(CNC(=O)c2ccc3c(c2)nnn3C2CCCC2)c1	inactive: -34.4%
Cc1ccc(N(CC(=O)NCc2ccc(F)cc2)S(=O)(=O)c2c(C)nn(C)c2C)cc1	inactive: 1.51%
COc1ccc(-n2nc(C(=O)Nc3ccc(C)cn3)c3c4ccccc4n(C)c3c2=O)cc1	inactive: -8.49%
Cc1ccc(-n2cc(-c3ccccc3)nc2S(=O)(=O)CC(=O)Nc2ccc(F)cc2)cc1	inactive: -20.8%
CCCCSCCCNC(=O)c1cn(C)c2ccc(S(=O)(=O)N3CCCCC3)cc2c1=O	inactive: -0.385%
COc1ccc(OC)c(NC(=O)Cn2ccc3ccccc3c2=O)c1	inactive: 11.4%
COc1ccccc1C(=O)Nc1nnc(SCc2cc(=O)c3cc(Cl)ccc3[nH]2)s1	inactive: -1.14%
COc1ccc(NC(=O)c2c(-c3ccc(C)cc3)nnc3ccccc23)cc1Cl	inactive: -4.66%
CCN(CC)C(=O)Cn1c(=O)n(-c2ccc(OC)cc2OC)c(=O)c2c(C)c(C(=O)N(CC)CC)sc21	inactive: -10.1%
O=C(CNC(=O)c1ccccc1F)OCc1cc(=O)n2ccsc2n1	inactive: -33.6%
Cc1ccc(C)c(N2CCN(C(=O)C3CCCN(S(=O)(=O)c4cccc5nsnc45)C3)CC2)c1 (stereo not drawn)	active: 66%
CCN(CC)CCCCCCCCOC(=O)c1cc(OC)c(OC)c(OC)c1	inactive: 5.38%
O=S(=O)(c1ccccc1)c1nc(-c2ccc(Cl)cc2Cl)oc1N1CCCCC1	inactive: -9.44%
Cc1nc(-c2ccc(Cl)cc2)sc1CCNC(=O)Cc1ccc(F)cc1	inactive: -5.09%
COc1ccc(C)cc1NC(=O)Cn1c(=O)cc(C)c2c(C)nn(C)c21	inactive: -4.2%

Structure (SMILES)	activation
Cc1ccc(CN2CCN(C3CCN(C(=O)c4ccccc4)CC3)C(=O)C2=O)cc1	inactive: -9.62%
Cc1ccc(C(=O)Nc2cccc(O)c2)cc1S(=O)(=O)N1CCCCCC1	active: 82.3%
CCN(CC)CCCNC(=O)c1cn(CC)c2ccc(S(=O)(=O)N3CCc4ccccc4C3)cc2c1=O	inactive: -4.73%
Cc1ccccc1CSc1nc2cc(C(=O)NC3CCCC3)ccc2c(=O)n1Cc1ccccc1	inactive: -8.89%
Cc1ccc(O)c(NC(=O)c2ccc(Br)c(S(=O)(=O)N3CCCCC3)c2)c1	inactive: -3.72%
CCN(Cc1ccccc1)C(=O)Cn1cc(S(=O)(=O)Cc2cccc(Cl)c2)c2ccccc21	inactive: -24.8%
Cc1cc2c(cc1C)NC(CC(=O)Nc1ccccc1)C(=O)N2 (stereo not drawn)	inactive: -15.7%
O=C(CCCn1c(=O)c2cccn2c2ccc(F)cc21)NCc1ccc(Cl)cc1	inactive: -10.6%
CCc1ccc(NC(=O)C(=O)NCC(c2cccnc2)N2CCN(Cc3ccccc3)CC2)cc1 (stereo not drawn)	inactive: -23.1%
CCCSc1ccc2nc(NC(=O)OC)[nH]c2c1	inactive: 31.1%
COC(=O)CC1Oc2ccccc2-n2cc(-c3ccccc3)nc21 (stereo not drawn)	inactive: 26.1%
CC1CCN(C(=O)CSc2c(C(C)C)cnc3c2c(=O)n(C)c(=O)n3C)CC1	inactive: -14.3%
Cc1ccc(-n2nc(CO)c(C(=O)NC(C)CCCc3ccccc3)n2)cc1C (stereo not drawn)	inactive: -26.3%
CCOc1ccc(CNS(=O)(=O)c2ccc3[nH]c(=O)ccc3c2)cc1	inactive: 24.5%
CCCCOc1ccc(CNC(=O)c2ccc(NC(=O)N3CCCCc4ccccc43)cc2)cc1	inactive: -5.25%
CC(=O)Nc1nonc1-c1nnc(SCC(=O)Nc2ccccc2)n1-c1ccccc1	inactive: -6.95%
CCC(=O)Nc1ccc2nc(SCCOc3ccccc3)sc2c1	inactive: 23.4%
COC(=O)c1ccc(-n2c(CCC(=O)O)ccc2-c2ccc(C)cc2)cc1	inactive: -31.6%
CCOC(=O)Cn1c(=O)n(CC2CCCO2)c2nc(-c3cccc(C)c3)nc(C(N)=O)c21 (stereo not drawn)	inactive: -2.53%
CCOc1ccccc1NC(=O)CCc1c(C)nn(-c2ccc(N3CCOCC3)nn2)c1C	inactive: 9.21%
Cc1ccc(NC(=O)CSc2ncn[nH]2)cc1C	inactive: -5.87%

Structure (SMILES)	activation
CNS(=O)(=O)c1cn(CC(=O)Nc2cccc(OC)c2)cc1S(=O)(=O)NC	inactive: -7.41%
Cc1c(Cl)cccc1NC(=O)c1noc2c1CCCC2	inactive: -12.2%
CCC(=O)N1c2ccccc2CC1C(=O)NCCN1CCN(c2cccc(C(F)(F)F)c2)CC1 (stereo not drawn)	inactive: 10.8%
CCn1c(C)c(C)c2cc(C(=O)NCCCN3CCCCC3)ccc21	inactive: -3.22%
Cc1ccc(C)c(N2CCN(Cc3nnc(-c4ccc5c(c4)OCO5)o3)CC2)c1	inactive: -11.8%
Cn1c(=O)oc2cc(S(=O)(=O)NC(Cc3ccccc3)C(=O)NCc3ccc(F)cc3)ccc21 (stereo not drawn)	inactive: -6.14%
COc1ccccc1OC(C)C(=O)Nc1c(C(=O)c2ccc(Cl)cc2)oc2ccccc12 (stereo not drawn)	inactive: -2.39%
CCOc1ccc(NC(=O)CC2C(=O)N(c3ccccc3)C(=O)N2C2CCCCC2)cc1 (stereo not drawn)	inactive: -8.98%
Cc1ccn2c(Nc3ccc4c(c3)OCO4)c(-c3ccc(N(C)C)cc3)nc2c1	inactive: -13.5%
COc1ccc(CNC(=O)c2nc(SC(C)C)ncc2Cl)cc1	inactive: -7.88%
COc1ccccc1CNC(=O)NCc1noc2ccc(C)cc12	inactive: -7.67%
O=c1c2cn[nH]c2nc(SCc2cccc(Br)c2)n1-c1ccc(Cl)cc1	inactive: -25.3%
Cc1nc2ccc(S(=O)(=O)CCC(=O)Nc3ccc(C)c(C)c3)cc2s1	inactive: -9.05%
CCOC(=O)c1c(-c2ccccc2)csc1NC(=O)c1cc(-c2ccc(Br)cc2)on1	inactive: -10.8%
CCOc1ccc(CCNC(=O)CCc2c(C)nc3c(-c4ccccc4)c(C)nn3c2C)cc1OCC	inactive: -15.5%
COCCCNC(=O)c1sc2nc3n(c(=O)c2c1C)CCC3	inactive: 5.27%
O=C(Cn1cc(S(=O)(=O)N2CCCC2)c(S(=O)(=O)N2CCCC2)c1)Nc1cccc(F)c1	inactive: 11.5%
COc1ccccc1CNC(=O)CN1C(=O)COc2ccc(S(=O)(=O)N3CCC(C)CC3)cc21	inactive: -18.3%
C=CCC(CC=C)(CNC(=O)C(=O)Nc1cc(C)ccc1OC)c1ccc(OC)c(OC)c1	inactive: -10.5%
CCOc1ccc(C2=NC(c3ccc(OC)cc3)=Nc3ccc(Cl)cc3N2)cc1	inactive: -15.1%
